In the RNAGym collection of RNA variant scans (doi:10.7554/elife.90254) one finds self-cleavage data, which are given here for 167 variants.

First the molecules themselves.
B1: LINE1-mini (parent)
chain: GGCAGAGCUCAACACAGCGUGGCAAAGUGGCUGUGGCUAGACUGCC

Read counts are not given, so values of variants with three or more changes are uncertain.

In this series the parent is B1. Description: self-cleavage, relative activity (ratio to wild type); higher = more cleavage; in vitro, sequencing; the parent is a self-cleaving ribozyme.
As to C23G G27U G35A A39G, the self-cleavage came to 0.02. In the case of C23G G40C U43A C46A, the self-cleavage turned out to be 0.09. Consider A24G G29C G44C, for which the self-cleavage was 0.11. For A24G C42U C45A, the self-cleavage came to 0.23. A24U A26C U34A: the self-cleavage amounted to 0.13. In the case of A24C G27C G40U it was 0.01.

As for C23U G30A U38A G40C, the self-cleavage came out at 0.03. In the case of C23A U34G G35A C37A G44A it was 0.02.

On to C23A G33U G36U, for which the self-cleavage stood at 0.04. In the case of C23U A26C U32A C42G, the self-cleavage turned out to be 0.05. In the case of A24G A26U G29C G40U, the self-cleavage came out at 0.03. In the case of C23A U32G G44U it was 0.04; in that of A24G C31A G44U, 0.04. With C23U G40U G44U the figure was 0.06; with A24C U34C G35A, 0.05. As to C23U U28A C31A, the self-cleavage stood at 0.13. With C23A U28G G29C G33A the figure was 0.87; with A24U A25U A39C, 0.31. A24C C37A C45G: the self-cleavage is 0.02. As for C23A G30C G33A C42A, the self-cleavage is 0.09.

C23U G27A C31U: the self-cleavage is 0.34. With A24G A25C C31A U43A the figure was 0.09; with C23A G33C G36A, 0.04. Regarding C23G G35U U43A, the self-cleavage was found to be 0.02. As for C23A G30C U32G G33C, the self-cleavage came to 0.14.

Take C23A G29U U38G A41C: the self-cleavage was determined as 0.02. In the case of A24U A25C U32G C37A it was 0.03; in that of A24C G29U U38G, 0.02; in that of C23U C31G G40C, 0.02.

On to C23G G27A A39C C42A, for which the self-cleavage turned out to be 0.06.

As for C23U U34A C37G, the self-cleavage came out at 0.01. C23U C31A C46A: the self-cleavage worked out at 0.27. With A24G G30C U32A the figure was 0.21; with C23G C31U G40U C42G, 0.02. As to C23G G29C G36U C42A, the self-cleavage turned out to be 0.03. As to A24C U43A C46G, the self-cleavage turned out to be 0.01. In the case of A24C U43A C46U, the self-cleavage turned out to be 0.07.

C23U G30C C37G C46A: the self-cleavage was determined as 0.01. Turning to C23G A24G A41C, the self-cleavage was 0.05.

Consider C23A G35A U38G, for which the self-cleavage worked out at 0.02. As for C23U G40U C45A, the self-cleavage is 0.28. In the case of C23A G33U C37A, the self-cleavage turned out to be 0.1.

On to C23U G35U G36U, for which the self-cleavage was 0.27. A24C G27U U43G C45U: the self-cleavage was 0.24.

In the case of C23U G35A C46U, the self-cleavage came out at 1.19. Consider C23A U28C G29A U38A G40U, for which the self-cleavage was 0.14. Take C23G A24C A25C G29C: the self-cleavage came to 0.2. Regarding C23A U38A G44C, the self-cleavage amounted to 0.1.

Regarding A24C G33A C46U, the self-cleavage was determined as 0.03. On to C23U G30C G33C C45G, for which the self-cleavage was found to be 0.02.

In the case of C23G G29U C46A, the self-cleavage amounted to 0.43.

For the variant A24G G30C G44U C45A C46A, the self-cleavage was determined as 0.05. Consider A24G C42U C46A, for which the self-cleavage was 0.11.

As for C23G A25C C31G, the self-cleavage amounted to 0. As to A24G A39C C46A, the self-cleavage was 0.07. Consider A24G G29U C42A G44C, for which the self-cleavage came to 0.09. With C23U G27A G33A U43G the figure was 0; with C23U U32A U34A, 0.05. Turning to C23U C42U U43G, the self-cleavage came to 0.05. C23U A26U G33A A41C G44C C46A: the self-cleavage came out at 0.03. In the case of C23U A26U A41G it was 0.28; in that of A24G G40C A41U U43C, 0.01; in that of C23G U43G C45A, 0.31. Consider C23U G29C C46A, for which the self-cleavage came out at 0.47. As for C23G G29C G30U, the self-cleavage is 0.12. For C23U A24G G40A, the self-cleavage was found to be 0.02.

For the variant C23G U28C A41U, the self-cleavage came out at 0.1. Take C23U A24U A26C C45A: the self-cleavage came to 1.01. Turning to A24G G33C G35U, the self-cleavage is 0.04. In the case of C23U G30C C45G, the self-cleavage was 0.03. As to C23U A24G U32A G33C G36U, the self-cleavage turned out to be 0. In the case of A24G U28C A39U C42A it was 0.1; in that of C23A G29A U43A, 0.23. Consider C23A G29A U43C, for which the self-cleavage came to 0.13. As to C23A G36U C46A, the self-cleavage was 0.07.

As for A24G G35U U38G G40U, the self-cleavage came out at 0.04. With C23G G29U C31A U34C the figure was 0.02.

Regarding A24C G36C C37U, the self-cleavage was 0.05. For the variant C23A G30C G36U, the self-cleavage was 0.33. C23U C31A U34A G35U: the self-cleavage is 0.02.

For the variant A24G C31A U32A G33C A41C, the self-cleavage turned out to be 0.15. As to C23U G35U C37G, the self-cleavage came out at 0.12. Turning to C23U G29U U34G, the self-cleavage turned out to be 0.28. Turning to A24C A39C A41C, the self-cleavage is 0.05. As to C23A G36C G40C C45G, the self-cleavage was 0.03. In the case of C23U C37U A39G it was 0.03; in that of A24G A26C G35A A39G, 0.09.

Regarding A24C U38A G44U, the self-cleavage is 0.12. A24C G27U G30C C31A: the self-cleavage was 0.02. In the case of A24C G30C C37U it was 0.08.

Regarding A24G G30A C45U, the self-cleavage turned out to be 0.14.

Turning to C23A G36A G40A, the self-cleavage was found to be 0.74. Take C23G A24U U28G G30U A39U: the self-cleavage turned out to be 0.6. For C23U A25C G29A, the self-cleavage is 0.26. Regarding C23U G30U C31A U32A G35A, the self-cleavage stood at 0.02. On to C23G G33C U34G G36C C45G, for which the self-cleavage was 0.02. In the case of C23A U34G A41U it was 0.27; in that of C23U G33A G36A C45U, 0.03. Take C23U G29C G36U: the self-cleavage was 0.04.

C23U A24C U34A G35U: the self-cleavage was 0. With A24G A26G G36A, the self-cleavage amounted to 0.1. With C23U G33C U43G the figure was 0; with A24G G30U C37G G40U, 0.03; with A24C G33A G35A, 0.03. Take C23G G29A G35A A41U: the self-cleavage amounted to 0.12. With C23U C31U C42A, the self-cleavage amounted to 0.04. In the case of C23U G33A G35A C46A it was 0.02.

Take A24C A25G G29U G35U: the self-cleavage was found to be 0.22. For the variant A24C G36A A39G, the self-cleavage was determined as 0.1. As for C23U C42G C46U, the self-cleavage was 0.02. On to C23U C37A C42G C45A, for which the self-cleavage was found to be 0.01.

Consider C23G G30A U43C, for which the self-cleavage was 0.05. With A24G G27C G30C the figure was 0.55. In the case of A24G G27C G30U, the self-cleavage is 1.67.

In the case of C23G A25C U32G, the self-cleavage was found to be 0.38.

Take C23U G33C C37U A39C: the self-cleavage turned out to be 2.01. Turning to C23A U34C G36A A39C U43A, the self-cleavage was 0.01.

Regarding C23U A25C U32A C37U, the self-cleavage came out at 0.02. As for C23U A26U C45A, the self-cleavage turned out to be 0.58. Turning to A24C C31G C45G, the self-cleavage came out at 0.03. On to A24U A26G G33C C37A G40U, for which the self-cleavage was determined as 0.03. On to C23U G29U G40U, for which the self-cleavage is 0.05. As for C23U G27A A41C, the self-cleavage came to 0.07. In the case of C23U G44U C45G, the self-cleavage turned out to be 0.08. For the variant C23U U34A G36U, the self-cleavage turned out to be 0.04.

With A24U A25C A41G, the self-cleavage is 0.16.

With C23U A24G A26C U34G, the self-cleavage is 0.9.

In the case of C23G G40U G44U, the self-cleavage amounted to 0. On to C23G A24U A41C C42G C46A, for which the self-cleavage amounted to 0.03.

For A24U A39U C46G, the self-cleavage came out at 1.96. In the case of C23U G36U G40C it was 0.06. On to C23A G30C G44C, for which the self-cleavage came to 0.09. Take C23G G27A C42U: the self-cleavage was 1.42. With C23U U28G G36U U38A the figure was 0.01.

C23U G30U A41C: the self-cleavage is 0.04. Turning to C23U G29U C31G, the self-cleavage is 0.03. In the case of C23U G29U C31U it was 0.14. As for A24G G40U C46A, the self-cleavage turned out to be 0.04. In the case of A24G U32C G44A it was 0.43. For C23A U32G U43A, the self-cleavage turned out to be 0.05. Take C23G U38A A39U: the self-cleavage was 0.49. With A24G A39G G40C the figure was 0.03; with C23U U38A U43A, 0.05. With A24G U43A C46U, the self-cleavage amounted to 0.07. As for C23G G29U U32C, the self-cleavage came to 0.42. With C23A G30U U38A the figure was 0.64; with A24C C37U U38G, 0.03. For A24C A25C U43A C46G, the self-cleavage is 0.02.

As to C23G G36U A39U C42A, the self-cleavage was 0.

For C23U G27U G35A, the self-cleavage amounted to 0.07. A24G A25G G27U U28C U32G G35U: the self-cleavage stood at 0.15.

For the variant C23A U28A A39G G40A, the self-cleavage came to 0.04. Consider A24G C42A C45U, for which the self-cleavage amounted to 0.3. With C23A G29U G36A the figure was 0.04; with C23G A24C C42U, 0.07. With C23U G30C U32C C42U U43G the figure was 0.02; with A24C G27C C37U, 0; with C23U G33C G40C C46U, 0.02.

With A24G G36C G40C C42G C45G, the self-cleavage was 0.03. With C23U G29C G33C C45A, the self-cleavage was determined as 0.05. For the variant A24C G33C U43C, the self-cleavage stood at 0.04.

Take A24G C37U G44C: the self-cleavage is 0.13. Regarding A24G A25G U34A, the self-cleavage was 0.02. Turning to A24C U38G C45U, the self-cleavage worked out at 0.01. For C23G G29A U43A, the self-cleavage was found to be 0.09. Consider A24G G27A U38C, for which the self-cleavage is 0.93. With A24G G27U U28C the figure was 0.5.
